Measured values taken from the supplement of paper PMC4967469.

Assays:
Test in all cases: Viability of human cancer cell lines after 72 h of drug (GDSC screen)
[1] = compound: CC(C)c1ccccc1Cc1cc(C(=O)Nc2ccc(S(=O)(=O)c3ccccc3C(C)(C)C)cc2)c(O)c(O)c1O [TW-37]; settings: top dose 5 µM
Procedure: (§1)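 Human cancer cell lines in 384-well plates, medium with 10% serum, drug for 72 h over a 256-fold dose range (nine 2-fold or five 4-fold steps up to the top dose). Adherent lines were fixed and stained with the nucleic acid dye Syto60, suspension lines read with resazurin; signal relative to control wells, capped at 0 and 100%. One two-parameter sigmoid per drug and line, fitted in a mixed model over all curves with the slope shared within a line.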

[2] = compound: O=S(=O)(c1ccccc1)N(CC(F)(F)F)c1ccc(C(O)(C(F)(F)F)C(F)(F)F)cc1 [T0901317]; settings: top dose 10.24 µM; top dose inferred
Procedure: as §1

[3] = compound: S=C(NCc1ccc2c(c1)OCO2)N1CCN(c2ncnc3c2oc2ccccc23)CC1 [MP470]; settings: top dose 20 µM; top dose inferred
Procedure: as §1

[4] = compound: Cc1cn(-c2cc(NC(=O)c3ccc(C)c(Nc4nccc(-c5cccnc5)n4)c3)cc(C(F)(F)F)c2)cn1 [Nilotinib]; settings: top dose 2 µM
Procedure: as §1

[5] = compound: Cc1ccc(Nc2cc(-c3cccc(N4C(=O)c5ccccc5C4=O)c3)ncn2)cc1NS(C)(=O)=O [KIN001-270]; settings: top dose 20 µM; top dose inferred
Procedure: as §1

[6] = compound: NC(=O)c1cccc(-c2cc(Nc3ccc(OC(F)(F)F)cc3)ncn2)c1 [GNF-2]; settings: top dose 1.28 µM; top dose inferred
Procedure: as §1

[7] = compound: Nc1ccn([C@@H]2O[C@H](CO)[C@@H](O)C2(F)F)c(=O)n1 [Gemcitabine]; settings: top dose 1.024 µM
Procedure: as §1

[8] = compound: C/C(O)=C(\C#N)C(=O)Nc1cc(Br)ccc1Br [LFM-A13]; settings: top dose 16 µM; top dose inferred
Procedure: as §1

[9] = compound: CC(O)(CS(=O)(=O)c1ccc(F)cc1)C(=O)Nc1ccc(C#N)c(C(F)(F)F)c1 [Bicalutamide]; settings: top dose inferred
Procedure: as §1

[10] = compound: CCNC(=O)c1noc(-c2cc(C(C)C)c(O)cc2O)c1-c1ccc(CN2CCOCC2)cc1 [AUY922]; settings: top dose 0.256 µM; top dose inferred
Procedure: as §1

[11] = top dose 1.024 µM, screen: GDSC drug entry 150
[12] = top dose 10 µM, screen: GDSC drug entry 1502

Cell Line | AUC [1] | IC50 [1] | AUC [2] | IC50 [2] | AUC [3] | IC50 [3] | AUC [4] | IC50 [4] | AUC [5] | IC50 [5] | AUC [6] | IC50 [6] | AUC [7] | IC50 [7] | AUC [8] | IC50 [8] | AUC [9, 11] | IC50 [9, 11] | AUC [10] | IC50 [10] | AUC [9, 12] | IC50 [9, 12]
SK-MM-2 (myeloma, suspension) | 0.771 | 2 µM | 0.927 | > 10.2 µM | 0.808 | 10.9 µM | 0.987 | > 2 µM | 0.9 | > 20 µM | 0.987 | > 1.28 µM | 0.598 | 0.121 µM | 0.98 | > 16 µM | 0.986 | > 1.02 µM | 0.649 | 0.0422 µM | – | –
SUP-M2 (anaplastic large cell lymphoma, suspension) | 0.43 | 0.211 µM | 0.815 | 4.03 µM | 0.846 | 9.74 µM | 0.994 | > 2 µM | 0.991 | > 20 µM | 0.994 | > 1.28 µM | 0.455 | 0.0496 µM | 0.993 | > 16 µM | 0.994 | > 1.02 µM | 0.832 | 0.113 µM | 0.993 | > 10 µM
NMC-G1 (glioma, adherent) | 0.576 | 0.529 µM | 0.98 | > 10.2 µM | 0.925 | > 20 µM | 0.972 | > 2 µM | 0.961 | > 20 µM | 0.978 | > 1.28 µM | 0.255 | 0.0106 µM | 0.94 | > 16 µM | 0.982 | > 1.02 µM | 0.527 | 0.0193 µM | 0.972 | > 10 µM
KARPAS-422 (B-cell lymphoma, suspension) | 0.747 | 1.57 µM | 0.986 | > 10.2 µM | 0.948 | > 20 µM | 0.986 | > 2 µM | 0.984 | > 20 µM | 0.984 | > 1.28 µM | 0.525 | 0.075 µM | 0.983 | > 16 µM | 0.988 | > 1.02 µM | 0.687 | 0.0528 µM | 0.984 | > 10 µM
BV-173 (chronic myeloid leukaemia, suspension) | 0.412 | 0.185 µM | 0.95 | > 10.2 µM | 0.84 | 11.4 µM | 0.074 | < 0.00781 µM | 0.954 | > 20 µM | 0.597 | 0.143 µM | 0.881 | 0.854 µM | 0.988 | > 16 µM | 0.988 | > 1.02 µM | 0.777 | 0.0907 µM | 0.98 | > 10 µM
NCI-H1836 (small cell lung carcinoma, suspension) | 0.925 | > 5 µM | 0.967 | > 10.2 µM | 0.67 | 3.93 µM | 0.988 | > 2 µM | 0.971 | > 20 µM | 0.986 | > 1.28 µM | 0.9 | > 1.02 µM | 0.952 | > 16 µM | 0.986 | > 1.02 µM | 0.961 | > 0.256 µM | 0.951 | > 10 µM
P32-ISH (Burkitt lymphoma, suspension) | 0.515 | 0.34 µM | 0.947 | > 10.2 µM | 0.95 | > 20 µM | 0.974 | > 2 µM | 0.856 | 10.2 µM | 0.992 | > 1.28 µM | 0.098 | 0.00554 µM | 0.958 | > 16 µM | 0.993 | > 1.02 µM | 0.55 | 0.0212 µM | 0.994 | > 10 µM
LAMA-84 (chronic myeloid leukaemia, suspension) | 0.489 | 0.291 µM | 0.944 | > 10.2 µM | 0.837 | 13.7 µM | 0.038 | < 0.00781 µM | 0.971 | > 20 µM | 0.586 | 0.138 µM | 0.445 | 0.0452 µM | 0.973 | > 16 µM | 0.985 | > 1.02 µM | 0.627 | 0.036 µM | 0.964 | > 10 µM
MDST8 (large intestine, adherent) | 0.474 | 0.266 µM | 0.987 | > 10.2 µM | 0.965 | > 20 µM | 0.925 | > 2 µM | 0.98 | > 20 µM | 0.988 | > 1.28 µM | 0.468 | 0.0524 µM | 0.986 | > 16 µM | 0.987 | > 1.02 µM | 0.694 | 0.0556 µM | 0.986 | > 10 µM
EW-1 (Ewing sarcoma, semi-adherent) | 0.467 | 0.255 µM | 0.976 | > 10.2 µM | 0.875 | 16.9 µM | 0.989 | > 2 µM | 0.952 | > 20 µM | 0.985 | > 1.28 µM | 0.099 | < 0.004 µM | 0.947 | > 16 µM | 0.985 | > 1.02 µM | 0.476 | 0.0139 µM | 0.987 | > 10 µM
ES4 (Ewing sarcoma, adherent) | 0.466 | 0.249 µM | 0.98 | > 10.2 µM | 0.934 | > 20 µM | 0.963 | > 2 µM | 0.98 | > 20 µM | 0.964 | > 1.28 µM | 0.053 | < 0.004 µM | 0.968 | > 16 µM | 0.981 | > 1.02 µM | 0.368 | 0.00653 µM | 0.979 | > 10 µM
NOMO-1 (acute myeloid leukaemia, suspension) | 0.554 | 0.448 µM | 0.903 | > 10.2 µM | 0.922 | > 20 µM | 0.898 | > 2 µM | 0.96 | > 20 µM | 0.98 | > 1.28 µM | 0.274 | 0.0132 µM | 0.952 | > 16 µM | 0.972 | > 1.02 µM | 0.653 | 0.0451 µM | 0.953 | > 10 µM

The IC50 comes from the fitted curve, where viability falls to half of the control; a fit beyond the top or the lowest dose is shown as a bound at that dose. AUC, from the same fit, is the share of area under the viability curve across the 256-fold dose range; values near 1 show little effect. For some of these results: An inferred top dose is not printed in the source and was worked back from the curve model. For some of these results: Drugs with an entry number were screened twice under separate entries, and the two screens often disagree.
